The supplement of paper PMC4166925
± gives the standard deviation of the averaged measurements. Whole data set: some 33,000 sequences, median “E-score (dimensionless, -0.5 to 0.5)” near -0.046, cut for the highest 2% near 0.36. This is one part of the list.

System: T1, SpTbr T-box DNA-binding domain (GST fusion)
T1 sequence: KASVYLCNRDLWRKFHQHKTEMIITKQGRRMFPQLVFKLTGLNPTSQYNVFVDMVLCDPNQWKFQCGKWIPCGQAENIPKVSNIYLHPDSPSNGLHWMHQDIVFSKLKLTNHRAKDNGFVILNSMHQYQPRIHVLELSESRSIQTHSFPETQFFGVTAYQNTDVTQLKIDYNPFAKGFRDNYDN
Assay: PBM E-score of 8-mer (E-score (dimensionless, -0.5 to 0.5)); Tbr is Tbrain of the sea star Patiria miniata (Pm) or the sea urchin Strongylocentrotus purpuratus (Sp); higher = stronger binding preference; most listed sequences are background and not binding sites
Settings: the construct has about 5 more residues each side
Procedure, shortened: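 GST-fused Tbr T-box DNA-binding domains (the whole T-box plus about five flanking residues) were expressed in BL21 E. coli at 20 °C and purified by glutathione affinity chromatography. Universal Agilent oligonucleotide arrays were made double-stranded by primer extension, incubated with 200 nM protein in PBS (pH 7.5), then scanned and quantified. Every ungapped 8-mer was scored from probe intensities. The Universal PBM Analysis Suite gave each word an enrichment E-score, averaged over duplicate arrays.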

Row | Sequence | PBM E-score of 8-mer
1 | ACACATGG | 0.313 ± 0.015
2 | ATGTGCCC | -0.0447 ± 0.038
3 | CCTGAGTC | -0.0308 ± 0.053
4 | GAGAACGC | 0.275 ± 0.0087
5 | GCTTAAAC | 0.0837 ± 0.029
6 | CCGCATAG | -0.113 ± 0.031
7 | CTCGCCAA | 0.175 ± 0.0053
8 | ACCATGTA | 0.0437 ± 0.0072
9 | ATTTGGTG | 0.119 ± 0.043
10 | ATCACCGG | -0.358 ± 0.036
11 | ATTCCGTA | -0.194 ± 0.024
12 | CATTACTC | -0.17 ± 0.064
13 | AGGAGCAG | -0.25 ± 0.074
14 | GTAATGAA | -0.0709 ± 0.044
15 | AAACCATT | -0.08 ± 0.05
16 | ACGCACCC | 0.215 ± 0.032
17 | CTCTGTAC | -0.0439 ± 0.087
18 | ATCAGAAT | -0.0403 ± 0.028
19 | CTACGTTC | -0.128 ± 0.027
20 | GAACGCTC | 0.0472 ± 0.045
21 | AGCCCGCC | -0.164 ± 0.18
22 | AGCAATCA | -0.118 ± 0.0093

Row | Sequence | PBM E-score of 8-mer
23 | ATATGACC | -0.073 ± 0.1
24 | CTTCATGA | -0.182 ± 0.062
25 | CAGCATGG | 0.0191 ± 0.067
26 | GAAATACC | -0.079 ± 0.06
27 | GAAGCCCC | -0.339 ± 0.045
28 | AGGCAGGG | -0.197 ± 0.047
29 | AGGAGAGG | -0.247 ± 0.019
30 | CAGCGAGC | 0.172 ± 0.012
31 | ATAGGAAT | -0.319 ± 0.026
32 | GCCCCGCC | -0.086 ± 0.041
33 | CCTTCATA | 0.104 ± 0.017
34 | ACTAACGA | 0.098 ± 0.0011
35 | CGTCGTGA | -0.0205 ± 0.0093
36 | AGGGGACT | -0.143 ± 0.083
37 | GTGCGCAA | 0.137 ± 0.026
38 | ACCTTTGG | 0.0445 ± 0.018
39 | GAGTTAGC | 0.0856 ± 0.074
40 | TCCCTCGA | -0.0267 ± 0.0017
41 | CGAACGCG | 0.237 ± 0.0053
42 | GCAACTAA | 0.0109 ± 0.0072
43 | CGTTTCGC | 0.178 ± 0.0072
44 | CAAGAAGC | -0.13 ± 0.013

Row | Sequence | PBM E-score of 8-mer
45 | AGGCCTCA | 0.0481 ± 0.029
46 | AGTAAACA | 0.101 ± 0.057
47 | GTCGTCTA | -0.147 ± 0.04
48 | CCCCGGAC | -0.236 ± 0.042
49 | CACCCGGA | 0.2288 ± 0.001
50 | CTTACAGC | -0.08 ± 0.06
51 | CCACTCAG | -0.0534 ± 0.087
52 | CAACGGAG | -0.0759 ± 0.029
53 | CTTACTAC | -0.165 ± 0.02
54 | ATCGCCCC | -0.0732 ± 0.032
55 | GGAGGGAC | -0.149 ± 0.036
56 | CAGGACTG | -0.136 ± 0.017
57 | ATTTTTGG | -0.132 ± 0.042
58 | ACTAGTGC | 0.0994 ± 0.059
59 | ACACTAAC | 0.303 ± 0.03
60 | CACACCCA | 0.421 ± 0.02
61 | CGATAGAC | -0.0752 ± 0.021
62 | GTCTCCAA | -0.266 ± 0.079
63 | CCGACGTA | -0.0853 ± 0.019
64 | GTACTAAA | -0.298 ± 0.036
65 | CCTCCTAC | 0.0318 ± 0.011
66 | AATATGGC | -0.028 ± 0.044

Row | Sequence | PBM E-score of 8-mer
67 | AGTGCACA | 0.144 ± 0.0026
68 | CAAAATGC | -0.159 ± 0.029
69 | AGCCTGTC | -0.0516 ± 0.049
70 | AGGGTTAT | 0.0382 ± 0.041
71 | CCATGAGA | -0.149 ± 0.0034
72 | GCTATGTA | -0.131 ± 0.068
73 | GTGGGATA | 0.252 ± 0.0076
74 | ATCAGTGG | -0.149 ± 0.015
75 | ACATTGGG | -0.0454 ± 0.065
76 | ATTCTACA | -0.0365 ± 0.019
77 | AAATTGGG | -0.0567 ± 0.012
78 | AGAGGGCC | -0.194 ± 0.097
79 | TACTTAGA | 0.112 ± 0.02
80 | ACCAGGCA | -0.0942 ± 0.056
81 | CTAACGCC | 0.339 ± 0.034
82 | TACAACCA | -0.19 ± 0.026
83 | CTTTTATA | -0.0282 ± 0.055
84 | ACGAATCC | -0.112 ± 0.021
85 | AGCTCTCC | -0.13 ± 0.019
86 | CCGCAGTC | -0.204 ± 0.024
